Columns and labels:
Magnaporthe grisea = format: in vivo; conditions: Table 7, Test A
Phytophthora infestans = format: in vivo; conditions: Table 7, Test F
[1] = test system: Colletotrichum orbiculare; conditions: 250 ppm sprayed (2.5 ml/pot) before inoculation; assessed 6 to 10 days after inoculation

| SMILES | control value, Test A (blast on rice) (Magnaporthe grisea) | control value, Test F (late blight on tomato) (Phytophthora infestans) | control value, Test H (anthracnose on cucumber) [1] |
| --- | --- | --- | --- |
| CCn1c(-c2ccccc2Br)c(-n2ncc(C)c2Cl)cc(Cl)c1=O [Compound 272] | H (H shows the control value more than 50%) | L (L shows the control value of 50% or less) | H (H shows the control value more than 50%) |
| O=c1ccc(-n2cc(Cl)cn2)c(-c2ccc(F)cc2Br)n1CC(F)F [Compound 273] | H (H shows the control value more than 50%) | L (L shows the control value of 50% or less) | L (L shows the control value of 50% or less) |
| O=c1c(Cl)cc(-n2cc(Cl)cn2)c(-c2ccc(F)cc2Br)n1CC(F)F [Compound 274] | H (H shows the control value more than 50%) | L (L shows the control value of 50% or less) | L (L shows the control value of 50% or less) |
| O=c1c(Br)cc(-n2cc(Cl)cn2)c(-c2ccc(F)cc2Br)n1CC(F)F [Compound 275] | H (H shows the control value more than 50%) | L (L shows the control value of 50% or less) | L (L shows the control value of 50% or less) |
| O=c1ccc(-n2cc(Cl)cn2)c(-c2ccccc2F)n1CC(F)F [Compound 276] | L (L shows the control value of 50% or less) | L (L shows the control value of 50% or less) | L (L shows the control value of 50% or less) |
| O=c1c(Cl)cc(-n2cc(Cl)cn2)c(-c2ccccc2F)n1CC(F)F [Compound 277] | H (H shows the control value more than 50%) | L (L shows the control value of 50% or less) | L (L shows the control value of 50% or less) |
| O=c1c(Br)cc(-n2cc(Cl)cn2)c(-c2ccccc2F)n1CC(F)F [Compound 278] | H (H shows the control value more than 50%) | L (L shows the control value of 50% or less) | L (L shows the control value of 50% or less) |
| CCn1c(-c2ccc(C#N)cc2F)c(-n2cc(Cl)cn2)cc(Cl)c1=O [Compound 279] | H (H shows the control value more than 50%) | L (L shows the control value of 50% or less) | H (H shows the control value more than 50%) |
| CCn1c(-c2ccc(C#N)cc2F)c(-n2cc(Cl)cn2)cc(Br)c1=O [Compound 280] | H (H shows the control value more than 50%) | L (L shows the control value of 50% or less) | H (H shows the control value more than 50%) |
| CCn1c(-c2c(F)cc(F)cc2F)c(-n2cnnn2)ccc1=O [Compound 281] | L (L shows the control value of 50% or less) | L (L shows the control value of 50% or less) | L (L shows the control value of 50% or less) |
| O=c1ccc(-n2cc(F)cn2)c(-c2c(F)cc(F)cc2F)n1CC(F)F [Compound 282] | H (H shows the control value more than 50%) | L (L shows the control value of 50% or less) | H (H shows the control value more than 50%) |
| O=c1c(Br)cc(-n2cc(F)cn2)c(-c2c(F)cc(F)cc2F)n1CC(F)F [Compound 283] | H (H shows the control value more than 50%) | L (L shows the control value of 50% or less) | H (H shows the control value more than 50%) |
| O=c1ccc(-n2cc(F)cn2)c(-c2ccc(F)cc2F)n1CC(F)F [Compound 284] | H (H shows the control value more than 50%) | L (L shows the control value of 50% or less) | H (H shows the control value more than 50%) |
| O=c1c(Cl)cc(-n2cc(F)cn2)c(-c2ccc(F)cc2F)n1CC(F)F [Compound 285] | H (H shows the control value more than 50%) | L (L shows the control value of 50% or less) | H (H shows the control value more than 50%) |
| O=c1c(Br)cc(-n2cc(F)cn2)c(-c2ccc(F)cc2F)n1CC(F)F [Compound 286] | H (H shows the control value more than 50%) | L (L shows the control value of 50% or less) | H (H shows the control value more than 50%) |
| COc1ccc(-c2c(-n3cc(Cl)cn3)cc(Cl)c(=O)n2CC(F)F)c(Br)c1 [Compound 287] | H (H shows the control value more than 50%) | L (L shows the control value of 50% or less) | H (H shows the control value more than 50%) |

| SMILES | control value, Test A (blast on rice) (Magnaporthe grisea) | control value, Test F (late blight on tomato) (Phytophthora infestans) | control value, Test H (anthracnose on cucumber) [1] |
| --- | --- | --- | --- |
| COc1ccc(-c2c(-n3cc(Cl)cn3)cc(Br)c(=O)n2CC(F)F)c(Br)c1 [Compound 288] | H (H shows the control value more than 50%) | L (L shows the control value of 50% or less) | H (H shows the control value more than 50%) |
| O=c1ccc(-n2cc(Cl)cn2)c(-c2ccccc2Br)n1CC(F)F [Compound 289] | L (L shows the control value of 50% or less) | L (L shows the control value of 50% or less) | L (L shows the control value of 50% or less) |
| O=c1c(Cl)cc(-n2cc(Cl)cn2)c(-c2ccccc2Br)n1CC(F)F [Compound 290] | L (L shows the control value of 50% or less) | H (H shows the control value more than 50%) | L (L shows the control value of 50% or less) |
| O=c1c(Br)cc(-n2cc(Cl)cn2)c(-c2ccccc2Br)n1CC(F)F [Compound 291] | L (L shows the control value of 50% or less) | L (L shows the control value of 50% or less) | L (L shows the control value of 50% or less) |
| O=c1ccc(-n2cc(Cl)cn2)c(-c2ccccc2Cl)n1CC(F)F [Compound 292] | L (L shows the control value of 50% or less) | L (L shows the control value of 50% or less) | L (L shows the control value of 50% or less) |
| O=c1c(Cl)cc(-n2cc(Cl)cn2)c(-c2ccccc2Cl)n1CC(F)F [Compound 293] | H (H shows the control value more than 50%) | L (L shows the control value of 50% or less) | L (L shows the control value of 50% or less) |
| O=c1c(Br)cc(-n2cc(Cl)cn2)c(-c2ccccc2Cl)n1CC(F)F [Compound 294] | H (H shows the control value more than 50%) | L (L shows the control value of 50% or less) | L (L shows the control value of 50% or less) |
| CCN1C(=O)CCC(c2ccsc2Cl)=C1c1c(F)cccc1F [Compound 295] | L (L shows the control value of 50% or less) | L (L shows the control value of 50% or less) | L (L shows the control value of 50% or less) |
| CCn1c(-c2c(F)cccc2F)c(-c2ccsc2Cl)ccc1=O [Compound 296] | H (H shows the control value more than 50%) | L (L shows the control value of 50% or less) | H (H shows the control value more than 50%) |
| CCn1c(-c2c(F)cccc2F)c(-c2cc(Cl)sc2Cl)cc(Cl)c1=O [Compound 297] | L (L shows the control value of 50% or less) | L (L shows the control value of 50% or less) | L (L shows the control value of 50% or less) |
| CCn1c(-c2c(F)cccc2F)c(-c2ccsc2Cl)cc(Cl)c1=O [Compound 298] | H (H shows the control value more than 50%) | L (L shows the control value of 50% or less) | H (H shows the control value more than 50%) |
| CCn1c(-c2c(F)cccc2F)c(-c2ccsc2Cl)cc(Br)c1=O [Compound 299] | H (H shows the control value more than 50%) | L (L shows the control value of 50% or less) | H (H shows the control value more than 50%) |
| CCn1c(-c2ccc(OC)cc2F)c(-n2cc(F)cn2)ccc1=O [Compound 300] | H (H shows the control value more than 50%) | L (L shows the control value of 50% or less) | H (H shows the control value more than 50%) |
| CCn1c(-c2ccc(OC)cc2F)c(-n2cc(F)cn2)cc(Cl)c1=O [Compound 301] | H (H shows the control value more than 50%) | L (L shows the control value of 50% or less) | H (H shows the control value more than 50%) |
| CCn1c(-c2ccc(OC)cc2F)c(-n2cc(F)cn2)cc(Br)c1=O [Compound 302] | H (H shows the control value more than 50%) | L (L shows the control value of 50% or less) | H (H shows the control value more than 50%) |

— patent US11178870B2 (priority 2017, dated 2021)
